How the values were obtained:
Design in all cases: key: --: inactive; trace
[1] = test system: Pseudomonas aeruginosa; test: standard disc-plate assay; conditions: conc 0.1 mg/ml; disc 6.35 mm
Method: (§1) In Table IX the standard discplate-assay activity of the A52688 factors is summarized. Activity is measured as the diameter (in mm) of the observed zone of inhibition; the diameter of the disc used in each case was 6.35 mm.

[2] = test system: Pseudomonas solanacearum; conditions: conc 0.1 mg/ml; disc 6.35 mm; ^b overgrowth: factor F
Method: as §1

[3] = test system: Salmonella gallinarium; test: standard disc-plate assay; conditions: conc 0.1 mg/ml; disc 6.35 mm
Method: as §1

[4] = test system: Serratia marcescens; test: standard disc-plate assay; conditions: conc 0.1 mg/ml; disc 6.35 mm; ^b overgrowth: factor C
Method: as §1

[5] = test system: Mycobacterium avium; test: standard disc-plate assay; conditions: conc 0.1 mg/ml; disc 6.35 mm; ^b overgrowth: factor F
Method: as §1

[6] = test system: Proteus vulgaris; test: standard disc-plate assay; conditions: conc 0.1 mg/ml; disc 6.35 mm; ^b overgrowth: factors A, C, E, F, G
Method: as §1

Structure (SMILES)	Zone Diameters [1]	Zone Diameters [2]	Zone Diameters [3]	Zone Diameters [4]	Zone Diameters [5]	Zone Diameters [6]
[C-]#[N+]C(=CC1=C[C@@H](O)[C@H](O)CC1)C(=CC1CCC(O)CC1)[N+]#[C-] (relative stereo) [Factor C]	tr					
O=CNC=Cc1ccc(O)cc1 [Factor B]	--	--	--	--	--	--
[C-]#[N+]C(=CC1CCC(OC(=O)C=C(C)C)CC1)C(=CC1(OC(C)=O)C=CC(=O)CC1)[N+]#[C-] (stereo not drawn) [Factor F]	tr			tr		

— patent US4537777A, “A52688 Antibiotics and process for their production” (priority 1983, dated 1985)
